Many values rest on one well or one pass, so single values are uncertain.
Assays:
[1] = tested on: CHO-K1; assay: hypodiploid nuclei frequency (% of nucleated events); higher = more hypodiploid events (aneugenic)
Description: (§1)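 Flow-cytometric in vitro micronucleus assay (Litron MicroFlow) in CHO-K1 cells in 96-well plates, 19 concentrations (4.5-200 µM, n=1 per concentration). Without S9, cells were exposed for 24 h and sampled at 48 h. With Aroclor 1254-induced rat liver S9, cells were exposed for 3-4 h and sampled at 27-28 h. Read-outs are %MN and %hypodiploid nuclei relative to nucleated events, and relative survival as the nuclei-to-bead ratio versus the 1% DMSO vehicle control (x100).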

[2] = tested on: CHO-K1; assay: micronucleus frequency (% of nucleated events); higher = more micronuclei (genotoxic)
[3] = tested on: CHO-K1; assay: relative survival (nuclei to bead ratio vs DMSO control) (% of vehicle control); higher = more surviving cells
Description: as §1
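For hypodiploid nuclei frequency (% of nucleated events) in this document: hypodiploid nuclei gated on a flow cytometer with 488 nm excitation after SYTOX Green staining, cultures at 37 °C, positive controls vinblastine without S9 and cyclophosphamide with S9.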
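For micronucleus frequency (% of nucleated events) in this document: cells lysed with nuclei stained by SYTOX Green, then micronucleus-gated events counted against nucleated events by flow cytometry with 488 nm excitation.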
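For relative survival (nuclei to bead ratio vs DMSO control) in this document: Lysed-cell nuclei stained with SYTOX Green and counted against counting beads by flow cytometry at 488 nm excitation, with vinblastine (no S9) and cyclophosphamide (plus S9) as positive controls.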

ClC1=C(Cl)[C@]2(Cl)[C@@H]3[C@@H]4C[C@@H]([C@H]5O[C@@H]45)[C@@H]3[C@@]1(Cl)C2(Cl)Cl [Dieldrin]
Details	hypodiploid nuclei frequency, [1] [%]	micronucleus frequency, [2] [%]	relative survival, [3]
concentration: 4.53 (µM), S9 metabolic activation: with S9, exposure time: 3-4 hours	0.4	1.96	81.9
concentration: 4.53 (µM), S9 metabolic activation: without S9, exposure time: 24 hours	0.64	1.04	119
concentration: 5.66 (µM), S9 metabolic activation: with S9, exposure time: 3-4 hours	0.4	2.06	101
concentration: 5.66 (µM), S9 metabolic activation: without S9, exposure time: 24 hours	0.6	1.02	96.7
concentration: 7.07 (µM), S9 metabolic activation: with S9, exposure time: 3-4 hours	0.3	1.54	84.5
concentration: 7.07 (µM), S9 metabolic activation: without S9, exposure time: 24 hours	0.7	1.72	120
concentration: 8.84 (µM), S9 metabolic activation: with S9, exposure time: 3-4 hours	0.32	1.86	81.9
concentration: 8.84 (µM), S9 metabolic activation: without S9, exposure time: 24 hours	0.7	1.82	98.1
concentration: 11.1 (µM), S9 metabolic activation: with S9, exposure time: 3-4 hours	0.28	1.28	73
concentration: 11.1 (µM), S9 metabolic activation: without S9, exposure time: 24 hours	0.88	1.8	113
concentration: 13.8 (µM), S9 metabolic activation: with S9, exposure time: 3-4 hours	0.24	1.52	84
concentration: 13.8 (µM), S9 metabolic activation: without S9, exposure time: 24 hours	3.1	2.54	101
concentration: 17.3 (µM), S9 metabolic activation: with S9, exposure time: 3-4 hours	0.36	1.72	84
concentration: 17.3 (µM), S9 metabolic activation: without S9, exposure time: 24 hours	0.9	1.84	108
concentration: 21.6 (µM), S9 metabolic activation: with S9, exposure time: 3-4 hours	0.46	2.38	88.4
concentration: 21.6 (µM), S9 metabolic activation: without S9, exposure time: 24 hours	0.94	3.22	104
concentration: 27 (µM), S9 metabolic activation: with S9, exposure time: 3-4 hours	0.26	1.82	105
concentration: 27 (µM), S9 metabolic activation: without S9, exposure time: 24 hours	0.96	1.24	70.4
concentration: 33.7 (µM), S9 metabolic activation: with S9, exposure time: 3-4 hours	0.24	1.96	95.7
concentration: 33.7 (µM), S9 metabolic activation: without S9, exposure time: 24 hours	1.14	1.84	73.9
concentration: 42.2 (µM), S9 metabolic activation: with S9, exposure time: 3-4 hours	0.26	1.66	79.6
concentration: 42.2 (µM), S9 metabolic activation: without S9, exposure time: 24 hours	0.98	1.26	79.2
concentration: 52.7 (µM), S9 metabolic activation: with S9, exposure time: 3-4 hours	0.28	2.16	80.5
concentration: 52.7 (µM), S9 metabolic activation: without S9, exposure time: 24 hours	1.1	2.28	56
concentration: 65.9 (µM), S9 metabolic activation: with S9, exposure time: 3-4 hours	0.34	2.14	86.8
concentration: 65.9 (µM), S9 metabolic activation: without S9, exposure time: 24 hours	1.24	2.46	66.5
concentration: 82.3 (µM), S9 metabolic activation: with S9, exposure time: 3-4 hours	0.34	2.02	75.5
concentration: 82.3 (µM), S9 metabolic activation: without S9, exposure time: 24 hours	1.6	1.86	66.4
concentration: 103 (µM), S9 metabolic activation: with S9, exposure time: 3-4 hours	0.32	2.58	82.3
concentration: 103 (µM), S9 metabolic activation: without S9, exposure time: 24 hours	1.6	2.78	68.1
concentration: 129 (µM), S9 metabolic activation: with S9, exposure time: 3-4 hours	0.28	1.78	88.4
concentration: 129 (µM), S9 metabolic activation: without S9, exposure time: 24 hours	2.7	2.14	62
concentration: 161 (µM), S9 metabolic activation: with S9, exposure time: 3-4 hours	0.28	1.74	114
concentration: 161 (µM), S9 metabolic activation: without S9, exposure time: 24 hours	2.34	3.3	48.4
concentration: 201 (µM), S9 metabolic activation: with S9, exposure time: 3-4 hours	0.2	1.7	107
concentration: 201 (µM), S9 metabolic activation: without S9, exposure time: 24 hours	2.7	3.6	46.9

OCCNCCO [Diethanolamine]
Details	hypodiploid nuclei frequency, [1] [%]	micronucleus frequency, [2] [%]	relative survival, [3]
concentration: 4.5 (µM), S9 metabolic activation: with S9, exposure time: 3-4 hours	0.2	1.72	80.8
concentration: 4.5 (µM), S9 metabolic activation: without S9, exposure time: 24 hours	0.72	1.58	99.4
concentration: 5.63 (µM), S9 metabolic activation: with S9, exposure time: 3-4 hours	0.38	2.24	70.7
concentration: 5.63 (µM), S9 metabolic activation: without S9, exposure time: 24 hours	0.68	2.92	88.2
concentration: 7.04 (µM), S9 metabolic activation: with S9, exposure time: 3-4 hours	0.3	1.46	69
concentration: 7.04 (µM), S9 metabolic activation: without S9, exposure time: 24 hours	1.1	3.3	93.1
concentration: 8.8 (µM), S9 metabolic activation: with S9, exposure time: 3-4 hours	0.24	0.78	86.2
concentration: 8.8 (µM), S9 metabolic activation: without S9, exposure time: 24 hours	1	2.08	66.9
concentration: 11 (µM), S9 metabolic activation: with S9, exposure time: 3-4 hours	0.18	1.58	73.5
concentration: 11 (µM), S9 metabolic activation: without S9, exposure time: 24 hours	1.08	3.1	68.5
concentration: 13.7 (µM), S9 metabolic activation: with S9, exposure time: 3-4 hours	0.26	1.74	81.9
concentration: 13.7 (µM), S9 metabolic activation: without S9, exposure time: 24 hours	0.54	1.58	73.5
concentration: 17.2 (µM), S9 metabolic activation: with S9, exposure time: 3-4 hours	0.3	1.64	95.9
concentration: 17.2 (µM), S9 metabolic activation: without S9, exposure time: 24 hours	1.34	3.3	65.7
concentration: 21.5 (µM), S9 metabolic activation: with S9, exposure time: 3-4 hours	0.3	1.82	95.9
concentration: 21.5 (µM), S9 metabolic activation: without S9, exposure time: 24 hours	0.82	2.38	73.1
concentration: 26.8 (µM), S9 metabolic activation: with S9, exposure time: 3-4 hours	0.1	1	77
concentration: 26.8 (µM), S9 metabolic activation: without S9, exposure time: 24 hours	0.52	1.6	109
concentration: 33.6 (µM), S9 metabolic activation: with S9, exposure time: 3-4 hours	0.22	1.6	121
concentration: 33.6 (µM), S9 metabolic activation: without S9, exposure time: 24 hours	0.74	1.98	94.5
concentration: 41.9 (µM), S9 metabolic activation: with S9, exposure time: 3-4 hours	0.38	2.24	99.9
concentration: 41.9 (µM), S9 metabolic activation: without S9, exposure time: 24 hours	0.88	1.74	105
concentration: 52.4 (µM), S9 metabolic activation: with S9, exposure time: 3-4 hours	0.28	1.84	78.9
concentration: 52.4 (µM), S9 metabolic activation: without S9, exposure time: 24 hours	0.78	1.96	108
concentration: 65.5 (µM), S9 metabolic activation: with S9, exposure time: 3-4 hours	0.28	2.14	84.5
concentration: 65.5 (µM), S9 metabolic activation: without S9, exposure time: 24 hours	1.28	2.16	93.5
concentration: 81.9 (µM), S9 metabolic activation: with S9, exposure time: 3-4 hours	0.42	1.78	96.6
concentration: 81.9 (µM), S9 metabolic activation: without S9, exposure time: 24 hours	1.34	2.22	98.2
concentration: 102 (µM), S9 metabolic activation: with S9, exposure time: 3-4 hours	0.2	1.94	79.1
concentration: 102 (µM), S9 metabolic activation: without S9, exposure time: 24 hours	1.56	2.06	87.3
concentration: 128 (µM), S9 metabolic activation: with S9, exposure time: 3-4 hours	0.18	1.72	92.4
concentration: 128 (µM), S9 metabolic activation: without S9, exposure time: 24 hours	1.48	2.1	99.4
concentration: 160 (µM), S9 metabolic activation: with S9, exposure time: 3-4 hours	0.26	2.14	111
concentration: 160 (µM), S9 metabolic activation: without S9, exposure time: 24 hours	2.18	2.48	94.2
concentration: 200 (µM), S9 metabolic activation: with S9, exposure time: 3-4 hours	0.26	1.8	156
concentration: 200 (µM), S9 metabolic activation: without S9, exposure time: 24 hours	2.12	2.68	85.5

Reference: the supplement of paper PMC9151546
